# Experimental data: the supplement of paper PMC11417369
# ± gives the standard deviation of the averaged measurements. The list shows a part of the results.
# Test system: PfAP2-I AP2 domain 3 (GST-tagged)
# Assay: gcPBM binding intensity (ln(normalized median fluorescence intensity)); higher = stronger DNA binding
# Procedure, shortened: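 For binding intensity, the highest Masliner-normalised natural-log median intensity across replicate spots of either probe orientation was taken. Protein bound to the array was stained with Alexa488 anti-GST antibody and scanned at 488 nm. The protein, GST-tagged P. falciparum DNA-binding domains from E. coli at about 25 μg on average, had been applied for 1 h to an Agilent 4 × 180k array of primer-extended double-stranded 36-bp intergenic genomic probes and negative controls.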
row,Sequence,gcPBM binding intensity (ln)
1,TATAAATTTATATATGCATGTCAGAAAAAAAAGTAA [TGCATGCA_site414],8.29 ± 0.54
2,CAACAAAATAAACACACACACACAAACACAAAAAAA [CACACA_site5806],8 ± 0.28
3,ATATATAAATATATATGTACATAAATATATATCTTT [XGTACX_site6910],7.62 ± 0.45
4,AAGAAAAAAAAAAAAACACACATATATATATATATA [CACACA_site2027],9.61 ± 0.2
5,TGTATACCTTAATATACACACATACCTATATTTATA [CACACA_site6746],7.67 ± 0.49
6,TATAAATAGAGGAAGCGTACATATATATATATATAT [XGTACX_site4993],9.38 ± 0.21
7,GGATATTAATAAATATGTACATATGTAGATTTATTA [XGTACX_site554],7.73 ± 0.41
8,AAATAAATAAATAGACGTACAAAAATATTATACATT [XGTACX_site6776],7.91 ± 0.12
9,GATATGATGTGTTTGGTAGTTTTTGATGTTGGCATG [GTGCAC_negctrl_site506],7.77 ± 0.42
10,AATAATGAAAAAATGAATAAAATTACTATATAATTC [XGTACX_negctrl_site457],7.25 ± 0.55
11,TATAAATGTGTATGCGCATGTAAAAATATAATTTAT [TGCATGCA_site750],8.22 ± 0.71
12,GTAAATAATAAACACCGTACATGGTATAATTCAATG [XGTACX_site3655],7.6 ± 0.59
13,CACGCGCACGAACACACACACACACGCATATAAATA [CACACA_site7103],8.29 ± 0.41
14,ATATTATTTTATTTTTGTACAGATATCTTTAAAAAA [XGTACX_site3734],7.94 ± 0.45
15,TACAGATAAATATACATACATATATATATATATATA [XGTACX_negctrl_site182],8.89 ± 0.83
16,TTTTTTTTTTTTTTTGCACACTTAAATTTGGTGGGG [CACACA_site2344],9.89 ± 0.19
17,AATACATACATACATACATGCATATATATATATATA [TGCATGCA_site462],9.46 ± 0.73
18,TTATTAAAAATGGTATGTACGCACATAATATATATA [XGTACX_site3230],8.56 ± 0.51
19,AACATCATCTCTCCACAACAACAAAAAAAAAAATAC [CACACA_negctrl_site311],8.12 ± 0.49
20,TATTTTTATTGGTGAATACACACGTATATATATATT [CACACA_site2401],7.96 ± 0.45
21,TGTTTATGTTTACATGTGCGCATTACAGAAAAAAAA [GTGCAC_site9669],8.89 ± 0.12
22,ACATGTATACTTTTTACGAAAAAAAAAAAAAAAAAA [CACACA_negctrl_site1638],8.05 ± 0.69
23,TTTTTATTTAAAAGTAGTACAAGGGTTATTATTAAC [XGTACX_site1555],8.13 ± 0.43

row,Sequence,gcPBM binding intensity (ln)
1,GAAATCTAATTTATTACACACATTTGAAAAAAATTC [CACACA_site6640],7.74 ± 0.44
2,AATTTTTTGAATAATTGTACATATTTGGTTAAATAT [XGTACX_site3612],7.64 ± 0.29
3,TTACTAAGAAGGATTTATTTTATAAAAATATTTATT [XGTACX_negctrl_site549],7.25 ± 0.46
4,TTATATTTTTTTGAGTGTACTTTTTGTGTAAAATTC [XGTACX_site2155],7.89 ± 0.43
5,ACCCATTTTTGTTGTTCTATATATTCGTGAATCATT [CACACA_negctrl_site614],8.13 ± 0.44
6,ATATTTTATACTTGCACACAAAATATATTAGAATGT [CACACA_site1985],8.77 ± 0.3
7,ATATTGCTTATTTGATGTACGAATACACTAGTATTA [XGTACX_site4536],7.79 ± 0.64
8,ATACTAAATGAACACACACACATATAGATTTATAAC [CACACA_site6200],7.88 ± 0.47
9,TATCTGTATATGTGTACACATATTCTTAACTCACGC [CACACA_site4255],8.12 ± 0.54
10,GAACAACAACAAAAAAAAAAAAAAAAAAAAAAAAAA [CACACA_negctrl_site199],8.12 ± 0.83
11,TAAATAAATATATGTACACACACAAATATATACATA [CACACA_site8577],7.83 ± 0.25
12,TATATGATATAATATACACACATACATATATATATA [CACACA_site8066],8.91 ± 0.057
13,ATTTTATGAAATGTTGCACACAAAAAACAACATGTT [CACACA_site8408],8.95 ± 0.092
14,ATATTTAATACAAATACACACACAAATATATACATA [CACACA_site9248],7.87 ± 0.63
15,ATGGGAAAAACATTCCGTACATACATACACATATAT [XGTACX_site8263],7.76 ± 0.59
16,CTGAATTTTTATAACTGTACATATTTGATATAAAAA [XGTACX_site183],7.75 ± 0.33
17,AATACATACATATATACATGCATACATATAAATATA [TGCATGCA_site674],8.29 ± 0.78
18,GAACAAAAAAAAAATTGTACACAATTTTTTAAAATT [XGTACX_site4455],7.67 ± 0.32
19,ATGATTTATTATTATACACACAAAAAAAAAAAAGGA [CACACA_site264],7.92 ± 0.46
20,AAACAAAAAAAATAAGCACACATATATATATATATA [CACACA_site8173],9.55 ± 0.54
21,GCTTATAAGATATGCACACACAACACTTACAAAAAA [CACACA_site817],8.74 ± 0.2
22,AAAATTATATGTAATTGTACGGAATTATATACGCAA [XGTACX_site2048],7.87 ± 0.56
23,TTTTTTAAAAATATTATCATCGTAACAAGAAATCGA [CACACA_negctrl_site1111],7.74 ± 0.4

row,Sequence,gcPBM binding intensity (ln)
1,TCCTGTGGTTATATAACACACATTATTGCTTATAAG [CACACA_site6823],8.19 ± 0.4
2,ATATATGGGTAGTATACACACTGTATATTTAGGAAT [CACACA_site7357],7.87 ± 0.65
3,GTATGAAAAAAATATGCATGCTAAATAATAAATGTT [TGCATGCA_site352],7.95 ± 0.64
4,TATATATATATACATACATATAAAGTTACATAAACA [CACACA_negctrl_site432],9.31 ± 0.39
5,TAGATTTTTTTACATTGTACATATTTTTTCTTATAG [XGTACX_site293],7.73 ± 0.55
6,GAACAAACAAAGAAAGAACACACATACACAATATAC [CACACA_site8918],8.31 ± 0.32
7,TTTTTTAAAATATAAAATATGTACAAATATGTTGAA [GTGCAC_negctrl_site379],7.97 ± 0.3
8,TATAAAATATAAATTTGTACATATAAAATATTTTAT [XGTACX_site7462],7.72 ± 0.23
9,TAATAGTTATAAAATACACACCAGGCATGATAAATG [CACACA_site4335],7.62 ± 0.64
10,AATATTTTAAAAAAATGTACTTTTAACCCTTATTGG [XGTACX_site3490],7.65 ± 0.16
11,CATATTATTTATATTTGTACACAGCGATATGAAATA [XGTACX_site7717],7.95 ± 0.4
12,TATATATATATATATGTGCACATATATATGATATTA,9.79 ± 0.28
13,CTTACATAAAATATCACACACATAAAAAAACAATAT [CACACA_site1901],8.02 ± 0.7
14,CACCAATTCATATGCACACACATCTGCATATTATAG [CACACA_site6925],9.21 ± 0.26
15,ATATCGCACGTTTGAAGTACATAAAAACGATTAATA [XGTACX_site7684],8.78 ± 0.042
16,TTATATAAATATAAGGTGCTGGGGTTTATTACATAT [GTGCAC_site9909],8.07 ± 0.54
17,ATTTCGTAATTTATATCACACACATATATATATAAT [CACACA_site9021],8.06 ± 0.53
18,ATCATTTTTATAAATTGTACAAATATTTTTTATACA [XGTACX_site7551],7.95 ± 0.37
19,AATAAATAAATATATTGTACATATATATATATATAT [XGTACX_site8627],9.41 ± 0.67
20,CGAAAGGAAATATAACGTACATAAGATTATATTCAC [XGTACX_site3868],7.74 ± 0.67
21,ATGCATACACTTATATGTACACATTTACATATTATT [XGTACX_site2841],8.02 ± 0.44
22,TATTAAAAGAAAAAAAAAAAAAAATTAATACATATA [XGTACX_negctrl_site582],7.24 ± 0.3
23,ATGAACAAGGGGCACACACACATTATGACTAATTTA [CACACA_site3204],8.22 ± 0.38

row,Sequence,gcPBM binding intensity (ln)
1,TATTAATATATAGTAGTGCAATAAAGATATACTGAA,10.9 ± 0.58
2,AACATACTCACGAACATACACACGGACATACATACG [CACACA_site603],8.27 ± 0.4
3,ATATGCTATTAATTATGTACATATATATATATATAT [XGTACX_site4901],9.24 ± 0.88
4,GTACATTATATATATACACACATACATAATAAAGAA [CACACA_site5528],8.12 ± 0.23
5,ACTACGTGTCAAAAATATTAATTACAAATGAATAAA [GTGCAC_negctrl_site248],7.54 ± 0.32
6,GGACTATACAGTTATACACACACATATATATATAAT [CACACA_site7991],8.02 ± 0.57
7,TACATATTTACTATCACACACACGATATATATAAAT [CACACA_site1242],8.04 ± 0.24
8,TACTTAAAAAAAAAAAAAATAAATATTATGTATTAT [CACACA_negctrl_site138],7.23 ± 0.47
9,ATACGAAAAAATAGACGTACTATGAAATAATAATTT [XGTACX_site8387],7.76 ± 0.6
10,TTTAGTGAGTTTGTTGTGCACTGAAAAAATTACAAT,11.1 ± 0.18
11,TAATATTTTAATTGTGTGCACATTAATATTATAAAA,10.1 ± 0.16
12,TATATTATTTTTTGTGGTACATGTATTTTTACCTAA [XGTACX_site4348],7.9 ± 0.44
13,AAAACAAACGGACACACACACATATATATATATATA [CACACA_site5924],9.63 ± 0.45
14,ACATGTAAATTTACATGTACATGTAACACTTAATAT [XGTACX_site4575],8.02 ± 0.45
15,TGTAATATTTTTCATGCATGCTCTTCTTTTACATAA [TGCATGCA_site144],8.21 ± 0.69
16,ATAATTTATATTACTTGTACATATTTATATGAACGA [XGTACX_site3610],7.5 ± 0.33
17,TATATTAAACAATATACACACATTAATGTATCCATA [CACACA_site5523],7.66 ± 0.5
18,TTATATATATATATATGTACACATATATAACATGAT [XGTACX_site6643],8.16 ± 0.47
19,ATAACCTAATAATACACACACATGAATATAAATAAC [CACACA_site6584],8.09 ± 0.4
20,ATATATATTTTATACGCATGTAATTATTATGTGGTC [TGCATGCA_site45],7.85 ± 0.55
